Laboratory results taken from PubChem BioAssay AID894 (National Center for Advancing Translational Sciences (NCATS), 2007).
Out of some 150,000 compounds screened, about 6,500 (4.3%) were called active. The shares of active, inactive and inconclusive entries below differ from those in the screen. Calls follow the shape of the dose curve; as a rule, active = well fitted inhibition curve with a large enough effect (not every such curve was filed as active); inconclusive = small, poorly fitted or top-dose-only effect, or another doubt; inactive = no such curve, though single readings can be large or run the other way. Potencies of inconclusive entries are left out as doubtful fits.

What follows are molecules tested against 15-hydroxyprostaglandin dehydrogenase [NAD(+)] (Homo sapiens) (UniProt P15428) (assay: qHTS Assay for Inhibitors of HPGD (15-Hydroxyprostaglandin Dehydrogenase)). Details: purified HPGD, NADH fluorescence kinetic, PGE2 substrate; activity change, negative = inhibition: hits give low values.
Summary of the method: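 NADH formation kinetics: reaction with 30 uM PGE2 and 1 mM NAD+ (final), 20 nM enzyme, Tris-HCl pH 8 with Tween 20, after 15 min compound preincubation at room temperature. Fluorescence change, last versus first of five reads.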
% is scaled to controls: 0 for no effect and ±100 for the full control effect; potency is read from the fitted curve at half-maximal effect; tags tell the direction and shape of the fitted curve.

Sequence of UniProt P15428 (P15428 whole entry, looked up): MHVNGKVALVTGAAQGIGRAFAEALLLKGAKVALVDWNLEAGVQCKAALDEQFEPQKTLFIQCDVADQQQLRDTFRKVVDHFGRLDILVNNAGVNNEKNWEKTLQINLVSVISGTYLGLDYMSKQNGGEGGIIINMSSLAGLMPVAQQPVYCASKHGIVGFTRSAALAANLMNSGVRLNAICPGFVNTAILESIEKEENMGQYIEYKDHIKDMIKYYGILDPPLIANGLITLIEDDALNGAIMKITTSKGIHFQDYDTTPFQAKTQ

Compound	Potency	activity change, negative = inhibition
COc1ccccc1-n1c(SCC(=O)NC(C)(C)C)nnc1-c1ccco1	active: 15.8 µM	
COc1cccc(C(=O)Nc2nnc(-c3cccs3)s2)c1	inconclusive [inhibitor, single point]	
N#Cc1cc2c(nc1SCC(=O)Nc1sc3c(c1C#N)CCC3)CCCCC2	inconclusive [inhibitor, partial curve]	
COc1cccc(Nc2ncnc3c2cnn3-c2cccc(C)c2)c1	inconclusive [inhibitor, partial curve]	
COc1cc(C(=O)NC(=S)NCc2ccco2)cc(OC)c1OC		inactive: -21.9%
c1ccc(-c2cc(-c3nc4ccccc4[nH]3)c3ccccc3n2)cc1	inconclusive [inhibitor, partial curve]	
COc1ccc(S(=O)(=O)N2CCOCC2)cc1NC(=O)c1ccccc1-c1ccc(C(F)(F)F)cc1	inconclusive [inhibitor, partial curve]	
c1ccc2c(c1)CCN(Cc1nnnn1Cc1ccc3c(c1)OCO3)C2		inactive: -5.23%
O=C(Nc1cccc(NC(=O)c2ccc(-c3ccc(Br)cc3)o2)c1)c1ccco1	inconclusive [inhibitor, single point]	
COc1cc(/C=C(\C#N)C(=O)Nc2cc(C(F)(F)F)ccc2Cl)ccc1OCC(=O)Nc1cccc(C(F)(F)F)c1	inconclusive [inhibitor, partial curve]	
COCCNC(=O)/C(C#N)=C/c1cccc(/C=C(\C#N)C(=O)NCCOC)c1	active: 25.1 µM	
COC(=O)C1=CN(C(C)C)C=C(C(=O)OC)C1c1cccc(OC)c1	inconclusive [inhibitor, partial curve]	
CN1C=CC=C/C1=C1/SC(=S)N(Cc2ccccc2)C1=O	inconclusive [inhibitor, partial curve]	
CCCCn1c(-c2ccsc2)nc2c1c(=O)[nH]c(=O)n2CCC	inconclusive [inhibitor, partial curve]	
O=C(N/N=C/c1ccccc1O)c1cccc(C(F)(F)F)c1		inactive: -23.3%
COc1ccc(-c2cc(C(F)F)n3ncc(C(=O)N4CCCCC4)c3n2)cc1	inconclusive [inhibitor, partial curve]	
COc1cc(C(=S)N2CCOCC2)ccc1OS(=O)(=O)c1ccccc1[N+](=O)[O-]	inconclusive [inhibitor, single point]	
O=C(CSc1ncnc2sc3c(c12)CCCC3)c1ccco1	inconclusive [inhibitor, partial curve]	
COc1cc(C(=O)OCC(=O)N(C)C)cc(NC(=O)c2ccco2)c1OC	inconclusive [inhibitor, partial curve]	
CCc1nnc(NS(=O)(=O)c2ccc(NC(=S)NC(=O)c3ccc(Br)cc3)cc2)s1	active: 14.1 µM	
N/C(=N\OC(=O)c1ccc2c(c1)OCO2)c1ccc(Cl)cc1		inactive: -18.5%
CCC(=O)Nc1nonc1-c1nc2ccccc2n1N(C(=O)CC)C(=O)CC	inconclusive [inhibitor, partial curve]	
O=C(O)c1nn(-c2ccccc2)nc1-c1nn(-c2ccccc2)nc1C(=O)O	inconclusive [inhibitor, partial curve]	

Compound	Potency	activity change, negative = inhibition
CC(C)n1c(=S)[nH]c2c1c(=O)[nH]c(=O)n2C	active: 8.91 µM	
CCCCC1(C)NC(=O)c2c(C)sc(C(=O)OCC)c2N1 (stereo unspecified)	inconclusive [inhibitor, partial curve]	
Cc1cccc(C)c1-n1c(C)cc(/C=C2\NC(=O)NC2=O)c1C	inconclusive [inhibitor, single point]	
O=C(CCCSc1nc(-c2ccco2)cc(C(F)(F)F)n1)Nc1ccc2c(c1)OCO2	active: 20 µM	
CC(C)c1cccc2nc3c(c([Si](C)(C)C)c12)Cn1c-3cccc1=O	inconclusive [inhibitor, partial curve]	
CC(C)(C)c1ccc(-c2n[nH]c(=S)n2/N=C/c2ccncc2)cc1	active: 11.2 µM	
COC(=O)C(C)N1C(=O)S/C(=C/c2cc(C)n(-c3ccccn3)c2C)C1=O (stereo unspecified)		inactive: -4.72%
Cn1nc(CC(=O)NC2CCCCCCCCCCC2)c2ccccc2c1=O		inactive: -11.6%
COc1ccccc1-c1noc(CCC(=O)Nc2ccccc2Cl)n1	active: 25.1 µM	
CCCCNS(=O)(=O)c1ccc(OC)c2ncccc12	inconclusive [inhibitor, partial curve]	
Cc1nn(-c2ccccc2)c2sc(C(=O)NC3CCCCC3)cc12	inconclusive [inhibitor, partial curve]	
c1nc(N2CCNCC2)c2cc(-c3ccc4c(c3)OCO4)ccc2n1		inactive: -20.1%
Cn1nc(-c2ccc(Cl)cc2)c2cc(C(=O)NCC3CCCO3)sc21 (stereo unspecified)	inconclusive [inhibitor, partial curve]	
Cc1ccc(-n2sc3ccccc3c2=O)cc1S(=O)(=O)N1CCCCC1	active: 1 µM	
CN(C)c1ccc(CN(C(=O)COc2ccc(F)cc2)C2CCS(=O)(=O)C2)cc1 (stereo unspecified)		inactive: -3.58%
Oc1ccccc1/C=N/n1c(-c2cccs2)n[nH]c1=S	active: 2.51 µM	
Cn1cnc([N+](=O)[O-])c1Sc1ccccc1	active: 15.8 µM	
Cc1cc(C(=O)OCCO)c(C#N)c(N)n1	inconclusive [inhibitor, partial curve]	
Cc1ccc(N(CCC#N)C(=O)CSc2ccc3c(c2)OCCO3)cc1		inactive: -11.2%
N#Cc1nc(COc2ccc(Cl)cc2)oc1N1CCCCCC1	inconclusive [inhibitor, partial curve]	
CCC1=C/C(=C/N(C)c2ccccc2)C(=O)S1	active: 22.4 µM	
O=C(NNS(=O)(=O)c1ccccc1[N+](=O)[O-])c1ccc(O)cc1	active: 12.6 µM	
Cc1ccccc1-n1nc(C)c2cc(C(=O)NCc3cccnc3)sc21	inconclusive [inhibitor, partial curve]	
